# Results from PMC4336329 (PLoS ONE, 2015).
# Hit rate of the full screen: of about 310,000 compounds, about 14,000 (4.5%) showed an effect of 50% or more. The effect is printed as a negative number. Some of the results follow.
# Target: human ether-à-go-go-related gene (hERG) potassium channel (human, UniProt Q12809)
# Assay: primary screen, population patch clamp on CHO cells stably expressing hERG
# Protocol: Briefly, Chinese hamster ovary (CHO) cells stably expressing the hERG channel were dislodged from tissue culture flasks and dispensed into PPC plates. […] During the recording, background leak currents were estimated by a 100 ms step to -80 mV from an initial holding potential of -70 mV and subtracted from the subsequent current measurement. The campaign was conducted in two phases using slight differences in recording protocol. In the first phase, the initial voltage pulse used a 100 ms step to -30 mV from a holding potential of -70 mV, a 2 s conditioning step to +25 mV, and a 2 s test step to -30 mV. During the second phase of the screen, the potential during the conditioning step was raised to +45 mV. In both phases of the campaign, a secondary voltage pulse was applied using the same parameters as the second phase initial pulse. The initial and secondary pulses were applied in the absence of compound, and upon application of 1 μM and 10 μM test concentrations. […]
# 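Also: peak tail current of the secondary pulse compared with the same well before compound.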
# Chain of human ether-à-go-go-related gene (hERG) potassium channel (Q12809 whole entry, looked up): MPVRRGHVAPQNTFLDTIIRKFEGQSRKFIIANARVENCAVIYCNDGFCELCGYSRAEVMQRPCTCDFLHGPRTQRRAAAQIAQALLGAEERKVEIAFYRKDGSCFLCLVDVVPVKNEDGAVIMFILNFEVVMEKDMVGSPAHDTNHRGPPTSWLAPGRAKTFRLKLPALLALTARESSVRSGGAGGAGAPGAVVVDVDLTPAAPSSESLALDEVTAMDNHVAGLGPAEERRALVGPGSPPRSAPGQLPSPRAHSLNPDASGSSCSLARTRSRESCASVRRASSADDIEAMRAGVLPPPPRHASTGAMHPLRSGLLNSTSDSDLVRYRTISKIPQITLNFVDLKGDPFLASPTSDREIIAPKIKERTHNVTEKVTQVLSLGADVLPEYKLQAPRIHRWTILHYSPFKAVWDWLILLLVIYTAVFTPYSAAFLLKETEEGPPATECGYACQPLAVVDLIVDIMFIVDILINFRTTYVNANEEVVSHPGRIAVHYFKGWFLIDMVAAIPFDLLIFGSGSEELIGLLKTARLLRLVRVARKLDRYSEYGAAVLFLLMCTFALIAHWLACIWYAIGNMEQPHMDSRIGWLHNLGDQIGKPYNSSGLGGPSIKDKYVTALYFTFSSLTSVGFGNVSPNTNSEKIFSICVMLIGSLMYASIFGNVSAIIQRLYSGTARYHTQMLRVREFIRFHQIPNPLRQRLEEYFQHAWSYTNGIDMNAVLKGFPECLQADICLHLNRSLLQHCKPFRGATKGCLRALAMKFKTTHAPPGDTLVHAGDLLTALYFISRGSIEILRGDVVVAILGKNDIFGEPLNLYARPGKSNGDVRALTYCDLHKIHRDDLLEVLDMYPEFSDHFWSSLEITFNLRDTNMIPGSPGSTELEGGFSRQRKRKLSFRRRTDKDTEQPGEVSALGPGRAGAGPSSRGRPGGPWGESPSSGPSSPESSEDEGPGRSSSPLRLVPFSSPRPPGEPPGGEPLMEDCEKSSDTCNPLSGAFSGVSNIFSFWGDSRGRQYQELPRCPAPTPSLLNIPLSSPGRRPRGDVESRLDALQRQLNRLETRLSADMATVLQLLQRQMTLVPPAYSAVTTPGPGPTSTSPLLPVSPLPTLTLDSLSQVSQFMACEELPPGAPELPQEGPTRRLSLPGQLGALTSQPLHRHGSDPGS
row,SMILES,"hERG current change (%, negative = inhibition) at 10uM [%]"
1,Cc1nn(C)c(C(=O)NNC(=O)Nc2cccc(C(F)(F)F)c2)c1Cl,37.5
2,Cc1ccc(S(=O)(=O)N2CCNC(=O)CC2)cc1,12.2
3,CC(C)C(O)C1CCN(Cc2nc(Cc3ccccc3Cl)no2)CC1 (stereo not shown),11.9
4,Cc1coc2cc3oc(=O)c(CCC(=O)NC4CC4)c(C)c3cc12,7.02
5,COc1ccc(NC(=O)C2CCCCN2CC(=O)OCc2ccccc2)cc1OC.O=C(O)C(=O)O (stereo not shown),-4.79
6,Nc1ccccc1SC1CC(=O)N(c2ccc3c(c2)OCCO3)C1=O (stereo not shown),13
7,COc1ccc(C(=O)N(CN2CCCC2=O)c2nccs2)cc1OC,7.06
8,C=CCOC(=O)C1=C[C@@H](c2ccc(Br)cc2)C[C@@H](OCCCCO)O1,-44.6
9,O=C(COc1ccc(Br)cc1)Nc1ccccc1C(=O)N1CCOCC1,-14.2
10,COc1ccccc1N(CC(=O)NCCN1CCOCC1)S(=O)(=O)c1ccc(C)cc1,-10.1
11,COc1ccc2cc(-c3[nH]ncc3CN3CCCC3c3nonc3C)ccc2c1 (stereo not shown),0.998
12,COCC(C)n1c(COc2ccccc2F)nnc1SCC(=O)c1c(N)n(C)c(=O)n(C)c1=O (stereo not shown),16.4
13,CCCC(Oc1ccc(Br)cc1)c1nc2c3cc(OC)c(OC)cc3nc(=S)n2[nH]1 (stereo not shown),14.5
14,Cc1c(C(=O)N2CCOCC2)oc2ccccc12,5.05
15,CC(=O)N/C(=C\c1ccc(F)cc1)C(=O)NC(Cc1ccccc1)C(=O)O (stereo not shown),15.8
16,CCC(=O)N1CCN(c2ccc(NC(=O)c3cc4ccccc4o3)cc2Cl)CC1,-67.7
17,O=C(COC(=O)c1ccccc1C(=O)c1ccc(Cl)cc1)NCc1ccccc1,6.97
18,COc1cccc(N/C(C)=C/C(=O)c2ccc(Br)cc2)c1,9.55
19,C=CCn1c(CC(=O)OC)csc1=Nc1ccc(C(C)=O)cc1,-2.98
20,CCC(Sc1ncccc1Nc1ccccn1)C(=O)O (stereo not shown),27.1
21,COC(=O)c1[nH]c2c(c1C)C(=O)CC(c1ccc(C)cc1)C2 (stereo not shown),8.65
22,O=c1[nH]c(C2CCCN(S(=O)(=O)c3ccccc3)C2)nc2c1nnn2Cc1ccccc1Br (stereo not shown),-4.77

row,SMILES,"hERG current change (%, negative = inhibition) at 10uM [%]"
1,Cc1ccc(NC(=O)Nc2ncccc2C)cc1,0.423
2,COc1cc(CO)ccc1OCc1nnnn1-c1ccc(C)cc1,0.766
3,COc1cccc(NS(=O)(=O)c2ccc(NC(C)=O)cc2)c1,-9.9
4,COCCNC(=S)N1CCC(c2nc(-c3ccc(F)cc3)no2)CC1,-18.9
5,NC(=O)Nc1cccc2ccccc12,14.7
6,Cl.Clc1ccc(CNCCCSc2ncccn2)cc1Cl,-19.8
7,Cc1ccc(C2(c3ccccc3)NC(=O)N(CC(=O)NC3(C#N)CCCC3)C2=O)cc1C (stereo not shown),-63.4
8,Cc1cc(C(=O)OCC(=O)N(C)c2ccccc2)ccc1[N+](=O)[O-],-14.4
9,Cc1c2cnn(CC(=O)Nc3c(F)c(F)cc(F)c3F)c(=O)c2c(C)n1Cc1ccc(F)cc1,7.84
10,CC(C)Cn1nc(C(=O)Nc2nnc(C3CC3)s2)c2ccccc2c1=O,-48.1
11,O=C(N/N=C/c1ccncc1)c1ccc(-n2cccc2)cc1,-23.6
12,Cc1cc(NS(=O)(=O)c2ccc(NC(=O)COc3ccc(Br)cc3)cc2)nc(C)n1,12
13,Cc1cccc(N(C(=O)CNC(=O)c2cccs2)C(C(=O)NC2CCCC2)c2ccncc2)c1 (stereo not shown),-3.44
14,CC1CCCN(C(=O)Cn2c3ccccc3c3nc4n(c(=O)c32)CCS4)C1 (stereo not shown),-3.59
15,Cc1onc(-c2ccccc2)c1C(=O)Nc1ccc(C(=O)N2CCCCC2)cc1,10.5
16,CC1CCCCC1NC(=O)CN1C(=O)NC(C)(c2ccc(OC(F)F)cc2)C1=O (stereo not shown),-47.2
17,O=C(NCCc1cccs1)C(c1ccccc1)c1ccccc1,21.1
18,COc1ccc(CCNC(=O)CCS(=O)(=O)c2ccc3c(c2)oc(=O)n3C)cc1OC,13.1
19,C=CCN(C(=O)CNC(=O)c1cccs1)C(C(=O)NC1CCCCC1)c1cccnc1 (stereo not shown),4.85
20,NC(=S)N/N=C1/CCSc2ccc3ccccc3c21,-23.4
21,C/C(=N\NC(=O)Nc1ccccc1)c1ccc2ccccc2c1,11.5
22,Cc1ccc(Nc2nc(OC(C(F)(F)F)C(F)(F)F)nc(N3CCOCC3)n2)cc1,8.16

row,SMILES,"hERG current change (%, negative = inhibition) at 10uM [%]"
1,Cc1ccc2oc(C(=O)N3CCN(C)C[C@@H]3C(C)C)c(C)c2c1,2.17
2,CO/N=C(\CCC(=O)O)c1cccs1,-1.9
3,Oc1ccc(/C=N\Nc2nncc(-c3ccccc3)n2)cc1,2.75
4,O=C(NCc1ccccc1Cl)c1cnccn1,9.67
5,O=C(CSCc1ccccc1Br)N/N=C/c1ccc2c(c1)OCO2,-5.35
6,Cc1nn(Cc2ccccc2)c(C)c1C(=O)OCC(=O)c1cc(C)n(C2CC2)c1C,-10.2
7,Cc1cc(C)n(CCCNC(=O)c2ccc(C)c(S(=O)(=O)N3CCOCC3)c2)n1,2.96
8,COc1ccc(-c2nnc(SCc3ccc(C(=O)O)cc3)n2C)cc1OC,7.65
9,COc1ccc([N+](=O)[O-])cc1NC(=O)C(C)N(C)Cc1ccc(Br)cc1 (stereo not shown),-3.1
10,COc1cccc(C2NC(=O)NC(C)=C2C(=O)Nc2cc(OC)ccc2OC)c1 (stereo not shown),-5.53
11,CS(=O)(=O)Nc1ccc(C2=NN(C(=O)c3ccco3)C(c3ccco3)C2)cc1 (stereo not shown),-72.3
12,CCOC(=O)c1ccc(NC(=O)COC(=O)Cc2csc(-c3ccccc3)n2)cc1,9.08
13,O=C1Nc2ccc(Cl)cc2[C@@](C#CC2CC2)(C(F)(F)F)O1,13.9
14,CCN1C(=O)CSC1=NC12CC3CC(CC(C3)C1)C2,2.7
15,COc1ccc(CC(NC(C)=O)C(=O)NC2CCN(C(=O)c3ccc(OC)c(OC)c3)CC2)cc1OC (stereo not shown),9.8
16,Cc1cc2cc(CNC(=O)CCC(=O)O)ccc2[nH]1,-8.3
17,CCCCN1CC2=C(C1=O)C(c1ccc(O)cc1)NC(=O)N2C (stereo not shown),-2.81
18,Cc1cccc(C)c1NC(=O)CNC(=O)c1cncc(Br)c1,27
19,CCCc1nnc(NC(=O)c2nc(S(=O)(=O)Cc3cccc(C)c3)ncc2Cl)s1,8.01
20,CCOc1ccc(NC(=O)CN(C)C(=O)c2c(C)noc2C)cc1OCC,11
21,COC(=O)[C@@H]1CCCN1Cc1c(C(=O)N2CCCCC2)nc2c(C)cccn12,-29.7
22,Cc1cccc(NC(=O)Cn2c(=O)n(C)c3ccccc32)c1,13.8

row,SMILES,"hERG current change (%, negative = inhibition) at 10uM [%]"
1,CN(C)CCN1C(=O)C(=O)/C(=C(/O)c2ccccc2)C1c1ccccc1F (stereo not shown),1.74
2,O=S(=O)(NC1CCCCC1N1CCN(c2ccccc2F)CC1)c1ccccc1 (stereo not shown),-6.84
3,CCCCCN(C(=O)COC(=O)CSc1ccc([N+](=O)[O-])cc1)c1c(N)n(CCCC)c(=O)[nH]c1=O,-40.5
4,CC1(C)CC(=O)C=C(NCC(=O)O)C1,-0.925
5,CC1CCCCC1NC(=O)CCNC(=O)N1CC(=O)Nc2ccccc21 (stereo not shown),10.5
6,C/C(=N\NC(=O)CNc1cccc(C(F)(F)F)c1)c1cccs1,17.5
7,CC(=O)c1ccc(OC(=O)Cc2cccc3ccccc23)cc1,3.13
8,COc1ccccc1NC(=O)C(=O)/C=C(\O)c1ccccc1,8.17
9,Cc1ccccc1CNC(=O)C1CCC(=O)N(C2CC2)C1 (stereo not shown),15.5
10,COc1ccc(C(=O)CN2C(=O)NC(C)(c3ccc(C)cc3)C2=O)cc1OC (stereo not shown),4.3
11,COc1ccc(Br)cc1/C=N/NC(=O)c1nc(-c2ccccc2)n2c1CCCCC2,10.2
12,CC1CCc2sc(C(=O)Nc3ccc(N4CCOCC4)cc3)cc2C1 (stereo not shown),11.6
13,Cc1[nH]c2ccccc2c1C(=O)C(=O)NCCc1c[nH]c2ccccc12,3.82
14,O=C(Cn1cnc2c(cnn2-c2ccccc2)c1=O)NCCc1ccccc1,5.77
15,Cc1cc(-n2c(C)cc(C(=O)CSc3nncn3C(C)C)c2C)no1,9.21
16,CC(C)N1CSC(=S)N(Cc2ccccc2)C1,22.4
17,COc1cccc(-c2ccc(NC(=O)C3CCCN(Cc4cnc(N(C)C)s4)C3)cc2)c1 (stereo not shown),8.97
18,Nc1cc(-c2ccccc2)n2c(n1)nc1ccccc12,-22.6
19,Cc1ccccc1NC(=O)c1nc[nH]c1C(=O)NCc1ccccc1,-15.2
20,C/C(=N\S(=O)(=O)c1ccc(C)cc1)N1CCCCC1,12.8
21,O=C(CCc1ccccc1)NNC(=O)CCc1ccccc1,12.7
22,Nn1c(SCc2ccccc2)nc2ccccc21,-6.9
